The values that follow come from PMC4336329 (PLoS ONE, 2015).

The whole screen tested about 310,000 compounds, of which about 14,000 (4.5%) showed an effect of 50% or more. Effects have a minus sign here. The list shows a part of the results.
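Further: peak tail current of the secondary pulse compared with the same well before compound.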

For this assay, the target named is human ether-à-go-go-related gene (hERG) potassium channel (human, UniProt Q12809). Nature of the assay: primary screen, population patch clamp on CHO cells stably expressing hERG.
Chain of human ether-à-go-go-related gene (hERG) potassium channel (Q12809 whole entry, looked up): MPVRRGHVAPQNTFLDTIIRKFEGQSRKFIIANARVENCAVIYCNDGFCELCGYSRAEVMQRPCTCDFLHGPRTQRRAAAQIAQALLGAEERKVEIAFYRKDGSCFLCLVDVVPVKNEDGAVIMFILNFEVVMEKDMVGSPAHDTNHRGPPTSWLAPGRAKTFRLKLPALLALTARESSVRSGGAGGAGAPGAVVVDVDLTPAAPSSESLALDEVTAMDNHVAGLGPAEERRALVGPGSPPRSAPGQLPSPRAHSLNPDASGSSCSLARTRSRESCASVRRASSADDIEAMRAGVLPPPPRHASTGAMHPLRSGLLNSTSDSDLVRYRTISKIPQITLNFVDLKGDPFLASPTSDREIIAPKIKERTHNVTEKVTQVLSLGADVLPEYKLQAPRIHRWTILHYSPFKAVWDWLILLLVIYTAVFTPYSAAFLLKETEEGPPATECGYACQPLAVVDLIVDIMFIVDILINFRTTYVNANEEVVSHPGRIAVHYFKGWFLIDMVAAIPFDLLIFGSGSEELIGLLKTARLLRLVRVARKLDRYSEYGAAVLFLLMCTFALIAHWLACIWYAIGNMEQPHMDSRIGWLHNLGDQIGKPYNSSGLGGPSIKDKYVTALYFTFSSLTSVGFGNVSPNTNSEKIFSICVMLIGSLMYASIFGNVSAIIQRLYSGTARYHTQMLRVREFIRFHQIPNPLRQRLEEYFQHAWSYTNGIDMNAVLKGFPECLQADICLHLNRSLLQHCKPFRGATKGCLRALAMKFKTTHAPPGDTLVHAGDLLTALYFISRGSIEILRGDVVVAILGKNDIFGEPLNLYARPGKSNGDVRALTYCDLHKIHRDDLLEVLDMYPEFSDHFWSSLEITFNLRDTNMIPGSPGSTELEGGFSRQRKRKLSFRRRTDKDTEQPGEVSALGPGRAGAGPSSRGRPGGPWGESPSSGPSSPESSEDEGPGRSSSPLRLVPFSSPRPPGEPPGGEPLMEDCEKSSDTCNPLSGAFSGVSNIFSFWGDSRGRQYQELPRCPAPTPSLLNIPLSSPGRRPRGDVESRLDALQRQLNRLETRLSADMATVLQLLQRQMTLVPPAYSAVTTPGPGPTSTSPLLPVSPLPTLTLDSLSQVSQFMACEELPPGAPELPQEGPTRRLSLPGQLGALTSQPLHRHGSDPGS
`Cc1ccc(-c2nc(NCCN(C)C)c3ccccc3n2)cc1`: the “hERG current change (%, negative = inhibition) at 10uM” value was -44.9%.

With `COc1cc(C(=O)NCCC(C)C)ccc1OCc1ccc(Cl)cc1Cl`, the “hERG current change (%, negative = inhibition) at 10uM” value is reported as -0.57%.

`CCCCCCn1c(N2CCC(C)CC2)nc2c1c(=O)[nH]c(=O)n2C`: the “hERG current change (%, negative = inhibition) at 10uM” value is on record as -14.9%.

For the molecule `Cc1ccc(N/C=C/C(=O)C(C)(C)C)c(O)c1`, the “hERG current change (%, negative = inhibition) at 10uM” value is recorded as -5.33%.

Turning to `COc1ccccc1CNC(=O)COc1cccc(-n2cnnn2)c1`, the “hERG current change (%, negative = inhibition) at 10uM” value is recorded as -13.8%.

In the case of `CC(NC(=O)COc1ccc(-c2nnco2)cc1)c1ccc(Cl)cc1Cl` (stereo not shown), the “hERG current change (%, negative = inhibition) at 10uM” value is on record as -19.2%.

For the molecule `CCOc1ccc(S(=O)(=O)c2c[nH]c3ccc(C)cc3c2=O)cc1`, the “hERG current change (%, negative = inhibition) at 10uM” value turned out to be 24.9%.

Turning to `CCOC(=O)CCSc1nc(N2CCOCC2)c2c(c1C#N)CC(C)(C)OC2`, the “hERG current change (%, negative = inhibition) at 10uM” value is recorded as -11.1%.

Consider `CC(C)(C)n1nnnc1C(c1ccc(C(F)(F)F)cc1)N(Cc1ccc(F)cc1)Cc1ccco1` (stereo not shown), for which the “hERG current change (%, negative = inhibition) at 10uM” value is on record as 8.86%.

As to `COc1ccccc1NC(=S)NCCc1ccc(Cl)cc1`, the “hERG current change (%, negative = inhibition) at 10uM” value is -24.4%.

`COc1ccc(CNC(=O)C2CCN(S(=O)(=O)N3CCC4(CC3)OCCO4)CC2)c(OC)c1`: the “hERG current change (%, negative = inhibition) at 10uM” value turned out to be 4.25%.

As for `O=C(c1ccccc1)c1ccc(OC(=O)C2CCCCC2)cc1`, the “hERG current change (%, negative = inhibition) at 10uM” value was determined as 15.9%.

Regarding `CC(Cc1nnc(SCC(=O)O)n1N)c1ccccc1` (stereo not shown), the “hERG current change (%, negative = inhibition) at 10uM” value amounted to 23.3%.

As to `O=C(Cc1cccs1)N1CCN(c2ccc([N+](=O)[O-])cc2)CC1`, the “hERG current change (%, negative = inhibition) at 10uM” value is -66.1%.

`CC1(C)CN=C(NCc2ccccc2)S1`: the “hERG current change (%, negative = inhibition) at 10uM” value is 6.77%.

With `COc1cc(OC)cc(C(=O)NC2CCN(CCCOc3ccccc3)CC2)c1`, the “hERG current change (%, negative = inhibition) at 10uM” value is -70.2%.

For the molecule `CC1=C(C(=O)Nc2ccccc2)C(c2ccncc2)C(C#N)=C(SCC(=O)Nc2ccccc2)N1` (stereo not shown), the “hERG current change (%, negative = inhibition) at 10uM” value is on record as -25.1%.

`CN(C)C(=O)Oc1ccnc2cc(Cl)ccc12`: the “hERG current change (%, negative = inhibition) at 10uM” value was -8.25%.

Consider `CC(C)(C)C(=O)NC(=S)Nc1ccc(F)cc1`, for which the “hERG current change (%, negative = inhibition) at 10uM” value was 5.57%.

For the molecule `CC(C)NC(=O)COC(=O)c1ccc(Oc2ccccc2)cc1`, the “hERG current change (%, negative = inhibition) at 10uM” value turned out to be 1.11%.

Consider `Cc1cc(OCC(=O)Nc2nccs2)c2c(C)cc(=O)oc2c1`, for which the “hERG current change (%, negative = inhibition) at 10uM” value turned out to be 19.7%.

In the case of `CCn1cc(C(=O)N2CCN(c3ccc(OC)cc3)CC2)c2cc(OC)c(OC)cc2c1=O`, the “hERG current change (%, negative = inhibition) at 10uM” value is recorded as -33.8%.

Consider `COc1ccc(NC2CCCN(C(=O)c3cccnc3SC)C2)cc1OC` (stereo not shown), for which the “hERG current change (%, negative = inhibition) at 10uM” value stood at 19.6%.

Take `CCOCCCNC(=O)CCC(=O)NNc1nc2ccccc2c2nc(-c3ccccc3)nn12`: the “hERG current change (%, negative = inhibition) at 10uM” value is -47.5%.

Turning to `Cc1cc(NC(=O)C2CCN(S(=O)(=O)c3cnc[nH]3)CC2)ccc1Br`, the “hERG current change (%, negative = inhibition) at 10uM” value stood at 13.6%.

As to `CC(=O)c1ccc(N2CCN(C(=O)CCS(=O)(=O)c3ccc4c(c3)CCN4C(C)=O)CC2)cc1`, the “hERG current change (%, negative = inhibition) at 10uM” value turned out to be 3.77%.

`Cc1ccc2nc(/C(C#N)=C\c3ccc([N+](=O)[O-])o3)[nH]c2c1`: the “hERG current change (%, negative = inhibition) at 10uM” value is 7.57%.

For `Cc1ccc(NC(=O)CCNC(=O)c2ccccc2Cl)cc1S(=O)(=O)N1CCOCC1`, the “hERG current change (%, negative = inhibition) at 10uM” value is -8.82%.

As for `Cc1ccc(C(=O)NCC(=O)OCC(=O)N2CC(C)OC(C)C2)cc1` (stereo not shown), the “hERG current change (%, negative = inhibition) at 10uM” value was -8.61%.

In the case of `COc1ccc(N(CC(=O)N2CCCC2)S(C)(=O)=O)cc1`, the “hERG current change (%, negative = inhibition) at 10uM” value was 21.5%.

`COc1ccc(NC(=O)c2oc3ccc(S(=O)(=O)N4CCC5(CC4)OCCO5)cc3c2C)cc1`: the “hERG current change (%, negative = inhibition) at 10uM” value is -1.39%.

`O=C1CN(C(=O)c2cccc(S(=O)(=O)N3CCCC3)c2)c2ccccc2N1`: the “hERG current change (%, negative = inhibition) at 10uM” value stood at 12.3%.

With `CCOc1cc(N2CCOCC2)c(OCC)cc1NC(=O)[C@H](C)NC(=O)c1ccco1`, the “hERG current change (%, negative = inhibition) at 10uM” value was found to be 25.4%.

With `O=C(NNc1ncc(C(F)(F)F)cc1Cl)c1ccc(Cl)c(Cl)c1`, the “hERG current change (%, negative = inhibition) at 10uM” value is 0.00088%.

`OCCCNc1nc(-c2ccccc2)c2cc(Br)ccc2n1`: the “hERG current change (%, negative = inhibition) at 10uM” value is on record as -13.4%.

As for `Cc1c(NS(C)(=O)=O)cccc1-c1nc2cccnc2s1`, the “hERG current change (%, negative = inhibition) at 10uM” value is -5.35%.

For the molecule `COc1cc(/C=N/NC(N)=O)ccc1OC(=O)c1ccco1`, the “hERG current change (%, negative = inhibition) at 10uM” value was 1.11%.

Regarding `Cc1cc(C)n(Cc2ccc(F)cc2)c(=O)c1C#N`, the “hERG current change (%, negative = inhibition) at 10uM” value is 3.34%.

Consider `CN1C(=O)N(C)C2(c3ccccc3)Nn3c(s/c(=C/c4ccco4)c3=O)=NC12c1ccccc1` (stereo not shown), for which the “hERG current change (%, negative = inhibition) at 10uM” value is -2.36%.

Consider `O=C(NNC1=C(C(=O)C(F)(F)F)CCC1)c1cccc(O)c1`, for which the “hERG current change (%, negative = inhibition) at 10uM” value was -0.052%.

As for `COc1ccc(NC(=O)CC2SC(N3CCOCC3)=NC2=O)c(OC)c1` (stereo not shown), the “hERG current change (%, negative = inhibition) at 10uM” value is reported as -0.426%.

As for `COc1cccc(N(C(=O)c2cccs2)c2nc3ccccc3s2)c1`, the “hERG current change (%, negative = inhibition) at 10uM” value came to 7.94%.

For `Cc1cc(-c2ccc(C(C)C)c(S(=O)(=O)Nc3cc(C)on3)c2)on1`, the “hERG current change (%, negative = inhibition) at 10uM” value was 8.31%.

`COc1cccc(OC)c1OCCCOc1cccc2cccnc12`: the “hERG current change (%, negative = inhibition) at 10uM” value was 0.258%.

Turning to `O=C(COc1ccccc1-c1ccccc1)N/N=C/c1ccc2ccccc2c1`, the “hERG current change (%, negative = inhibition) at 10uM” value amounted to 8.07%.

Regarding `COC(=O)c1ccc2c(c1)S(=O)(=O)NC(=NCCCN1CCOCC1)S2.Cl`, the “hERG current change (%, negative = inhibition) at 10uM” value is reported as -1%.

Turning to `CC(=O)Nc1ccc(NC(=O)CSc2nc(N)c(NC(=O)c3ccco3)c(=O)[nH]2)cc1`, the “hERG current change (%, negative = inhibition) at 10uM” value is 16.5%.

`O=C(NCCc1ccccc1)C(c1ccccc1)N(C(=O)c1csnn1)C1CC1` (stereo not shown): the “hERG current change (%, negative = inhibition) at 10uM” value turned out to be 0.52%.

For the molecule `CC(C)(C)c1ccc(-c2nnc(SCC(=O)O)n2N)cc1`, the “hERG current change (%, negative = inhibition) at 10uM” value is recorded as 1.9%.

With `O=C(COc1cccc2cccnc12)N/N=C1\SCC(=O)N1Cc1ccccc1`, the “hERG current change (%, negative = inhibition) at 10uM” value was -44.8%.

Take `O=C(c1cc([N+](=O)[O-])ccc1N1CCOCC1)N1CCN(c2ccc([N+](=O)[O-])cc2)CC1`: the “hERG current change (%, negative = inhibition) at 10uM” value is -79.8%.

Consider `CC(C)(C)CC(=O)Nc1ccc(-c2nnc3n2CCCCC3)cc1`, for which the “hERG current change (%, negative = inhibition) at 10uM” value is given as 10.8%.

Consider `C=CCn1c(O)c(C(CC)=Nc2ccc3c(c2)CCC3)c(=O)[nH]c1=O`, for which the “hERG current change (%, negative = inhibition) at 10uM” value was 1.65%.

For the molecule `Cc1cc(C)cc(-n2c(SC(C)C(=O)NCc3ccc4c(c3)OCO4)nc3ccccc3c2=O)c1` (stereo not shown), the “hERG current change (%, negative = inhibition) at 10uM” value is 11.3%.

As to `O=C(Nc1cc(Cl)ccn1)C1CCN(S(=O)(=O)c2cccs2)CC1`, the “hERG current change (%, negative = inhibition) at 10uM” value is -2.64%.
